Measured values: publication PMC5892938
This is one part of the list. At the low end of the ranking the order means little.

target: GST-SBP-SLBP (stem-loop binding protein) (UniProt Q14493); test: targeted RNA Bind-n-Seq; conditions: RBNS binding buffer: 25 mM Tris pH 7.5, 150 mM KCl, 3 mM MgCl2, 0.1% Tween, 0.5 mg/mL BSA, 1 mM DTT; 27 nM protein, 750 pM RNA pool; temperature not stated; high values mean tight binding;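 also: DESeq read counts versus GST-SBP nonspecific binding control pulldown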

| Sequence | binding signal (log2 fold change) |
| --- | --- |
| GGUCACGUCUCAAUCAACUCAUCGCCAGGAGUUUACUCCUGCUUUUUCAACAGCUCGCAGUCAAG | -0.19 |
| GGUCACGUCUCAAUCAACUCUUCGUCAGGAGUUUUCUCCUGUAUUCUCAACAGCUCGCAGUCAAG | 0.0236 |
| GGUCACGUCUCAAUCAACUCUUCCGAGGGGGGGAAAACCCCUUUACCCUCAACAUCAACAGCUCGCAGUCAAG | 0.279 |
| GGUCACGUCUCAAUCAACUCUUCUUCAGGAGUUUCCUCCUGCUUACUCAACAGCUCGCAGUCAAG | 0.139 |
| GGUCACGUCUCAAUCAACUCAUCUUCCAGGGAAAGCCCUGGCUAUCUCAACAGCUCGCAGUCAAG | -0.27 |
| GGUCACGUCUCAAUCAACUCUUACGAGGGGGGGAAAACCCCUUUACCCUCAACAUCAACAGCUCGCAGUCAAG | 0.181 |
| GGUCACGUCUCAAUCAACUCUUAAGAGGGGGGGAAAACCCCUUUGCCCUCAAUUUCAACAGCUCGCAGUCAAG | -0.503 |
| GGUCACGUCUCAAUCAACUCUAUCUCCAGGGAAAGCCCUGGUAUACUCAACAGCUCGCAGUCAAG | 0.0996 |
| GGUCACGUCUCAAUCAACUCAACUUCAGGAGUUUGCUCCUGUAAUUUCAACAGCUCGCAGUCAAG | -0.0524 |
| GGUCACGUCUCAAUCAACUCCUUAGAGGGGGGGAAAACCCCUUUGCCCUCGAAAUCAACAGCUCGCAGUCAAG | -0.0521 |
| GGUCACGUCUCAAUCAACUCUAUCUCCAGGGAAAACCCUGGUAAUUUCAACAGCUCGCAGUCAAG | -0.102 |
| GGUCACGUCUCAAUCAACUCAUCCCCCAGGGAAAACCCUGGUUAAUUCAACAGCUCGCAGUCAAG | -0.334 |
| GGUCACGUCUCAAUCAACUCAUCUUCCAGGGAAAGCCCUGGCAUACUCAACAGCUCGCAGUCAAG | -0.0497 |
| GGUCACGUCUCAAUCAACUCAACUCCAGGAGUUUACUCCUGCUUUUUCAACAGCUCGCAGUCAAG | 0.0965 |
| GGUCACGUCUCAAUCAACUCUUCUUCAGGAGUUUUCUCCUGUUAUUUCAACAGCUCGCAGUCAAG | -0.0547 |
| GGUCACGUCUCAAUCAACUCCCCAGAGGGGGGGAAAACCCCUUUACCCUCGUCCUCAACAGCUCGCAGUCAAG | -0.0309 |
| GGUCACGUCUCAAUCAACUCUACUUCAGGAGUUUUCUCCUGUUAUCUCAACAGCUCGCAGUCAAG | -0.00831 |
| GGUCACGUCUCAAUCAACUCAUCUCCAGGAGUUUCCUCCUGUUUAUUCAACAGCUCGCAGUCAAG | 0.016 |
| GGUCACGUCUCAAUCAACUCAUUCCCAGGAGUUUACUCCUGCUUACUCAACAGCUCGCAGUCAAG | 0.081 |
| GGUCACGUCUCAAUCAACUCUAUCUCCAGGGAAAACCCUGGUAUAUUCAACAGCUCGCAGUCAAG | -0.118 |
| GGUCACGUCUCAAUCAACUCAAUCUCAGGAGUUUGCUCCUGUUUUCUCAACAGCUCGCAGUCAAG | 0.19 |
| GGUCACGUCUCAAUCAACUCUUCCUCCAGGGAAAACCCUGGUAAACUCAACAGCUCGCAGUCAAG | 0.339 |
| GGUCACGUCUCAAUCAACUCACUAGAGGGGGGGAAAACCCCUUUACCCUCCAAUUCAACAGCUCGCAGUCAAG | -0.189 |
| GGUCACGUCUCAAUCAACUCGUCUUCAGGAGUUUCCUCCUGCAUAUUCAACAGCUCGCAGUCAAG | 0.126 |
| GGUCACGUCUCAAUCAACUCUACUUCCAGGGAAACCCCUGGCUAAUUCAACAGCUCGCAGUCAAG | 0.153 |

| Sequence | binding signal (log2 fold change) |
| --- | --- |
| GGUCACGUCUCAAUCAACUCAUUCCCCAGGGAAAACCCUGGUAUUCUCAACAGCUCGCAGUCAAG | 0.0986 |
| GGUCACGUCUCAAUCAACUCAUCCUCAGGAGUUUUCUCCUGCUUUCUCAACAGCUCGCAGUCAAG | -0.0126 |
| GGUCACGUCUCAAUCAACUCAUCGUCCAGGGAAAACCCUGGUUUUCUCAACAGCUCGCAGUCAAG | 0.033 |
| GGUCACGUCUCAAUCAACUCCAUCGAGGGGGGGAAAACCCCUUUACCCUCAAUUUCAACAGCUCGCAGUCAAG | -0.00794 |
| GGUCACGUCUCAAUCAACUCCAAAGAGGGGGGGAAAACCCCUUUGCCCUCCACAUCAACAGCUCGCAGUCAAG | -0.371 |
| GGUCACGUCUCAAUCAACUCACAAGAGGGGGGGAAAACCCCUUUGCCCUCAUACUCAACAGCUCGCAGUCAAG | -0.362 |
| GGUCACGUCUCAAUCAACUCAAAAGAGGGGGGGAAAACCCCUUUACCCUCACUCUCAACAGCUCGCAGUCAAG | -0.102 |
| GGUCACGUCUCAAUCAACUCAAUUUCAGGAGUUUACUCCUGCAUUUUCAACAGCUCGCAGUCAAG | -0.0461 |
| GGUCACGUCUCAAUCAACUCUUCGUCAGGAGUUUACUCCUGCUUUUUCAACAGCUCGCAGUCAAG | 0.195 |
| GGUCACGUCUCAAUCAACUCAUCCCCCAGGGAAACCCCUGGCUAUCUCAACAGCUCGCAGUCAAG | 0.143 |
| GGUCACGUCUCAAUCAACUCUUUCCCCAGGGAAAUCCCUGGCUAUUUCAACAGCUCGCAGUCAAG | -0.129 |
| GGUCACGUCUCAAUCAACUCUUUUUCAGGAGUUUCCUCCUGUUAAUUCAACAGCUCGCAGUCAAG | 0.127 |
| GGUCACGUCUCAAUCAACUCUUUUCCCAGGGAAACCCCUGGUUUUCUCAACAGCUCGCAGUCAAG | 0.0265 |
| GGUCACGUCUCAAUCAACUCUAAAGAGGGGGGGAAAACCCCUUUACCCUCAAUUUCAACAGCUCGCAGUCAAG | 0.102 |
| GGUCACGUCUCAAUCAACUCAAUUCCAGGAGUUUUCUCCUGCUUACUCAACAGCUCGCAGUCAAG | 0.13 |
| GGUCACGUCUCAAUCAACUCAUCCUCAGGAGUUUACUCCUGCAUUCUCAACAGCUCGCAGUCAAG | 0.0577 |
| GGUCACGUCUCAAUCAACUCAUCCCCAGGAGUUUUCUCCUGCAUAGUCAACAGCUCGCAGUCAAG | 0.142 |
| GGUCACGUCUCAAUCAACUCUAACGAGGGGGGGAAAACCCCUUUACCCUCAUUCUCAACAGCUCGCAGUCAAG | -0.527 |
| GGUCACGUCUCAAUCAACUCUUUCCCAGGAGUUUCCUCCUGUAAUUUCAACAGCUCGCAGUCAAG | 0.0116 |
| GGUCACGUCUCAAUCAACUCAUUCUCAGGAGUUUUCUCCUGCUUUUUCAACAGCUCGCAGUCAAG | 0.108 |
| GGUCACGUCUCAAUCAACUCUCUAGAGGGGGGGAAAACCCCUUUGCCCUCAAAUUCAACAGCUCGCAGUCAAG | -0.527 |
| GGUCACGUCUCAAUCAACUCCAUCGAGGGGGGGAAAACCCCUUUGCCCUCACAUUCAACAGCUCGCAGUCAAG | 0.0932 |
| GGUCACGUCUCAAUCAACUCUUCCUCCAGGGAAAGCCCUGGUUAUUUCAACAGCUCGCAGUCAAG | -0.326 |
| GGUCACGUCUCAAUCAACUCUUCCUCCAGGGAAACCCCUGGCUAUUUCAACAGCUCGCAGUCAAG | -0.104 |
| GGUCACGUCUCAAUCAACUCAAUUUCCAGGGAAAACCCUGGUAUUCUCAACAGCUCGCAGUCAAG | -0.00494 |

| Sequence | binding signal (log2 fold change) |
| --- | --- |
| GGUCACGUCUCAAUCAACUCUAUUUCAGGAGUUUUCUCCUGUAUAUUCAACAGCUCGCAGUCAAG | -0.171 |
| GGUCACGUCUCAAUCAACUCUUUUCCCAGGGAAAGCCCUGGUUUUUUCAACAGCUCGCAGUCAAG | -0.135 |
| GGUCACGUCUCAAUCAACUCAUUCCCCAGGGAAAGCCCUGGUAUUCUCAACAGCUCGCAGUCAAG | -0.0736 |
| GGUCACGUCUCAAUCAACUCUUUUUCCAGGGAAAACCCUGGCAGUCUCAACAGCUCGCAGUCAAG | 0.12 |
| GGUCACGUCUCAAUCAACUCAACAGAGGGGGGGAAAACCCCUUUACCCUCAUUUUCAACAGCUCGCAGUCAAG | 0.422 |
| GGUCACGUCUCAAUCAACUCAAGUCCCAGGGAAACCCCUGGUUAAUUCAACAGCUCGCAGUCAAG | -0.399 |
| GGUCACGUCUCAAUCAACUCUUCUUCCAGGGAAAUCCCUGGCUAAUUCAACAGCUCGCAGUCAAG | 0.0581 |
| GGUCACGUCUCAAUCAACUCUUCUCCAGGAGUUUUCUCCUGCUAUGUCAACAGCUCGCAGUCAAG | -0.0246 |
| GGUCACGUCUCAAUCAACUCUUACGAGGGGGGGAAAACCCCUUUACCCUCAUCAUCAACAGCUCGCAGUCAAG | -0.045 |
| GGUCACGUCUCAAUCAACUCAUCGUCAGGAGUUUUCUCCUGCUAUUUCAACAGCUCGCAGUCAAG | 0.0471 |
| GGUCACGUCUCAAUCAACUCUUCUCCAGGAGUUUUCUCCUGCUAUCUCAACAGCUCGCAGUCAAG | 0.0817 |
| GGUCACGUCUCAAUCAACUCAAUUUCAGGAGUUUCCUCCUGCAUAGUCAACAGCUCGCAGUCAAG | 0.159 |
| GGUCACGUCUCAAUCAACUCAUCCUCCAGGGAAAACCCUGGUUAAUUCAACAGCUCGCAGUCAAG | 0.00953 |
| GGUCACGUCUCAAUCAACUCUUCUCCCAGGGAAAGCCCUGGUUUACUCAACAGCUCGCAGUCAAG | -0.187 |
| GGUCACGUCUCAAUCAACUCAAUCGCAGGAGUUUUCUCCUGGUUUCUCAACAGCUCGCAGUCAAG | -0.0134 |
| GGUCACGUCUCAAUCAACUCAUUCCCAGGAGUUUACUCCUGUAUUCUCAACAGCUCGCAGUCAAG | 0.0766 |
| GGUCACGUCUCAAUCAACUCUUCUCCCAGGGAAAGCCCUGGUAAUCUCAACAGCUCGCAGUCAAG | -0.113 |
| GGUCACGUCUCAAUCAACUCAUUCCCAGGAGUUUACUCCUGCAAUUUCAACAGCUCGCAGUCAAG | 0.0311 |
| GGUCACGUCUCAAUCAACUCUUUCGAGGGGGGGAAAACCCCUUUACCCUCAACUUCAACAGCUCGCAGUCAAG | 0.152 |
| GGUCACGUCUCAAUCAACUCUAUCUCCAGGGAAAGCCCUGGUAUUCUCAACAGCUCGCAGUCAAG | 0.287 |
| GGUCACGUCUCAAUCAACUCAACGCCAGGAGUUUACUCCUGUAAUUUCAACAGCUCGCAGUCAAG | -0.0163 |
| GGUCACGUCUCAAUCAACUCUCUCGAGGGGGGGAAAACCCCUUUACCCUCACUAUCAACAGCUCGCAGUCAAG | -0.000312 |
| GGUCACGUCUCAAUCAACUCAAUCUCAGGAGUUUUCUCCUGCUUUUUCAACAGCUCGCAGUCAAG | 0.0182 |
| GGUCACGUCUCAAUCAACUCUACUUCCAGGGAAAUCCCUGGUAUUUUCAACAGCUCGCAGUCAAG | -0.162 |
